The text below walks through data of paper PMC9830914, “Differential effects of mutations of POPDC proteins on heteromeric interaction and membrane trafficking” (Acta Neuropathologica Communications, 2023).

No constants are given. Whether binding was seen depends on the method and setting. For some assays here: Binding seen in cells or lysates may run through a third protein. Some results given as binding are weak or reduced against the parent protein; the word gives no strength. For some assays here: Sequences can lack the tags named with a protein.

For experiment [1], the target named is T1, POPDC1 with C-terminal NanoLuc or HaloTag (NanoBRET constructs) (human) (UniProt Q8NE79).
T1 sequence (chain, HaloTag-618 dye on the HaloTag copy): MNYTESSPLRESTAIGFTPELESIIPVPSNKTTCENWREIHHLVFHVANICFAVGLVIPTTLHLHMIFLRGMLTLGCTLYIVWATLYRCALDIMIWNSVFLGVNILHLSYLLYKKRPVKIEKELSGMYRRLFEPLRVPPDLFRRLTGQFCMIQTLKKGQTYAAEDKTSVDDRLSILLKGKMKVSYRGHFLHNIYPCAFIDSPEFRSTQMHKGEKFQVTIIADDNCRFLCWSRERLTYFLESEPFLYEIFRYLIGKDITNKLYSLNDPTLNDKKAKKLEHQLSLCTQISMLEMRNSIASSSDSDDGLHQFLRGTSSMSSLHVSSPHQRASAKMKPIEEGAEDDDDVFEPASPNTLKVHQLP
Briefly: FRET or BRET; type-1 quantitative NanoBRET in HEK293 cells; C-terminal NanoLuc and HaloTag (HaloTag-618 dye); expression ratios varied at constant total expression; curves compared to ideal curves for monomers, dimers and other stoichiometries.

For experiment [2], the target named is POPDC2 with C-terminal NanoLuc or HaloTag (NanoBRET constructs) (human) (UniProt Q9HBU9). The experiment is described as above.
The target of experiment [3] is T2, POPDC1-MYC (not stated (human or mouse cDNA cloned)) (UniProt Q8NE79).
T2 sequence: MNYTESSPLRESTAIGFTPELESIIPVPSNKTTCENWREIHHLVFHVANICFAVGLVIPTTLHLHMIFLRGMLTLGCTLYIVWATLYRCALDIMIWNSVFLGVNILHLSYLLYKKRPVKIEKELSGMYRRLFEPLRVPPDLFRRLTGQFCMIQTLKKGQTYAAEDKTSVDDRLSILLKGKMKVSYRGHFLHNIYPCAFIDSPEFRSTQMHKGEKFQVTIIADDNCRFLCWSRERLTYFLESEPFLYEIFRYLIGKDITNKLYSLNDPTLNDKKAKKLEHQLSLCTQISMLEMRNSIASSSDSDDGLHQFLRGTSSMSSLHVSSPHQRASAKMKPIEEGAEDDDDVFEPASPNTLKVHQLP
In words: co-IP; COS-7 cells transiently expressing epitope-tagged POPDC constructs, 1% Triton X-100 lysis buffer; c-Myc Tag or HA Tag IP/Co-IP kit; Western blot. On the technique in general: In western blotting, separated proteins are transferred to a membrane and probed.

Experiment [4] has as its target T3, POPDC3-MYC (UniProt Q9HBV1).
T3 sequence: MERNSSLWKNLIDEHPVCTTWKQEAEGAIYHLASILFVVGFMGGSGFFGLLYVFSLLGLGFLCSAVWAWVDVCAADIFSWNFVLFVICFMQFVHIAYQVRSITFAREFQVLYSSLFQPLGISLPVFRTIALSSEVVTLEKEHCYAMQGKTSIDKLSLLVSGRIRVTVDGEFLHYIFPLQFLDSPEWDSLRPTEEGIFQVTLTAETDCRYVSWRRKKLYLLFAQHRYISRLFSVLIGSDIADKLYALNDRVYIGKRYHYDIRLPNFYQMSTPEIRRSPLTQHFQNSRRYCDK
The experiment is described as above.

In experiment [5] the target is T4, POPDC1-CFP (human) (UniProt Q8NE79).
T4 sequence: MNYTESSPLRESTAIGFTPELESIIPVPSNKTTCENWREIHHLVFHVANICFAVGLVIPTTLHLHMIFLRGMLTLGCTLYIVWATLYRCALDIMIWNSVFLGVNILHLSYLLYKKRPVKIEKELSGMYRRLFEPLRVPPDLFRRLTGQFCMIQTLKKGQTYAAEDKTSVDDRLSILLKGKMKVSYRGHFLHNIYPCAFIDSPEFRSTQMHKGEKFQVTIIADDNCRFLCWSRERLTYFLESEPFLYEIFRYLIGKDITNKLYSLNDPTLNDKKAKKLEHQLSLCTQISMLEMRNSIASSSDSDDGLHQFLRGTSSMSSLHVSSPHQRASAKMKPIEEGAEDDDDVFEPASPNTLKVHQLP
Briefly: SDS-PAGE and Western blot of oligomer bands; COS-7 cells lysed in 4 M urea and 10% SDS without a reducing agent; anti-GFP antibody detects complexes that hold POPDC1-CFP.

The target in experiment [6] is T5, POPDC1 p.V183F-VC155 (human) (UniProt Q8NE79).
T5 sequence: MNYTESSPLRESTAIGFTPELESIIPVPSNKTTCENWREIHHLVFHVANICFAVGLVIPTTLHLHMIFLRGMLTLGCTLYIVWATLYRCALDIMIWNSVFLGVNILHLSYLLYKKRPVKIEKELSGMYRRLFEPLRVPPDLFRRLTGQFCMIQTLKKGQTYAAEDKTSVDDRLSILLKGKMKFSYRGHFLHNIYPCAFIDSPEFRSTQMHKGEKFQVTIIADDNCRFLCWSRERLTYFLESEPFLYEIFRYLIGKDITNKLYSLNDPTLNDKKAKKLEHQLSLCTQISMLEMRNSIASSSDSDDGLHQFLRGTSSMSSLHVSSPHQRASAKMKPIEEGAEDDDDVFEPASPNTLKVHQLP
In words: split reporter; BiFC in HEK293 cells, split Venus VC155 on POPDC1 and VN155 on POPDC2; Venus signal normalised to co-transfected mRFP and to the wild-type pair (set to 1).

Experiment [7] addresses T6, POPDC1-VC155 (human) (UniProt Q8NE79).
T6 sequence: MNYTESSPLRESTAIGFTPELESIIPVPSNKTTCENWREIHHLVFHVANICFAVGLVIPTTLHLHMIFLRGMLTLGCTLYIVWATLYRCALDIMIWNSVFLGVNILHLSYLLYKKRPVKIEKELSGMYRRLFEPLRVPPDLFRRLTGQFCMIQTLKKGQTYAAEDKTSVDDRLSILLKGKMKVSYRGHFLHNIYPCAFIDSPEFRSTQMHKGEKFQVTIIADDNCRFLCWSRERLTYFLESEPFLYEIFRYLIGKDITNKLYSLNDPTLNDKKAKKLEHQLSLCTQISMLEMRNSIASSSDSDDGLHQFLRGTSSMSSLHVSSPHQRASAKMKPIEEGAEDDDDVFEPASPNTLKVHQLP
The experiment is described as above.

Experiment [8] deals with T7, POPDC2, endogenous in mouse heart (mouse (endogenous in heart)) (UniProt Q9ES82).
T7 sequence: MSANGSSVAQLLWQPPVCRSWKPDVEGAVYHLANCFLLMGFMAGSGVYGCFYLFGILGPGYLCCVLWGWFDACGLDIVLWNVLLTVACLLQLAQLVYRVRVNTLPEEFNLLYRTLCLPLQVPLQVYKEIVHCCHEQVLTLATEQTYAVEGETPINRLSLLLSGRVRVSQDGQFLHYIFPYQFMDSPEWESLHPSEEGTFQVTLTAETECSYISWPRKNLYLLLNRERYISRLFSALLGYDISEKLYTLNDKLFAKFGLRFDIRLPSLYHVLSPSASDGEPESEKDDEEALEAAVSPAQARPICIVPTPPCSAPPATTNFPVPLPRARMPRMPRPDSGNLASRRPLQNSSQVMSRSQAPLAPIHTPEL
Briefly: co-IP; mouse ventricle lysate (1% Triton X-100), rabbit anti-POPDC2 antibody, Protein A agarose; POPDC1 detected by Western blot; Popdc2 null hearts as control.

Experiment [9] deals with T7, POPDC2, endogenous in mouse heart (mouse (endogenous in heart)). In words: proximity ligation; Duolink PLA on sections of mouse atrium and ventricle with goat anti-POPDC1 and rabbit anti-POPDC2; Popdc1/Popdc2 double knockout ventricle as negative control.
The target of experiment [10] is T8, POPDC1-HA (not stated (human or mouse cDNA cloned)) (UniProt Q8NE79).
T8 sequence: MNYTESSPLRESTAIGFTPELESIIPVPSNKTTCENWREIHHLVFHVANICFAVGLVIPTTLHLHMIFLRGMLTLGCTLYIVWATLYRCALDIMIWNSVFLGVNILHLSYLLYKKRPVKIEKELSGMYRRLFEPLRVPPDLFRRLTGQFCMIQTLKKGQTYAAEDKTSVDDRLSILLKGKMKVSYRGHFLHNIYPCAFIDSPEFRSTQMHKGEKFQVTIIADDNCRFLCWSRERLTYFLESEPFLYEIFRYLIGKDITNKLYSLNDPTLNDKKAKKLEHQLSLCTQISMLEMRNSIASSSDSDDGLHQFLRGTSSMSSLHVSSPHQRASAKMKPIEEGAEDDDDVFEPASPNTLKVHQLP
In words: co-IP; COS-7 cells transiently expressing epitope-tagged POPDC constructs, 1% Triton X-100 lysis buffer; c-Myc Tag or HA Tag IP/Co-IP kit; Western blot.

B1: POPDC2 with C-terminal NanoLuc or HaloTag (NanoBRET constructs) (protein, UniProt Q9HBU9 1-364)
chain: MSANSSRVGQLLLQGSACIRWKQDVEGAVYHLANCLLLLGFMGGSGVYGCFYLFGFLSAGYLCCVLWGWFSACGLDIVLWSFLLAVVCLLQLAHLVYRLREDTLPEEFDLLYKTLCLPLQVPLQTYKEIVHCCEEQVLTLATEQTYAVEGETPINRLSLLLSGRVRVSQDGQFLHYIFPYQFMDSPEWESLQPSEEGVFQVTLTAETSCSYISWPRKSLHLLLTKERYISCLFSALLGYDISEKLYTLNDKLFAKFGLRFDIRLPSLYHVLGPTAADAGPESEKGDEEVCEPAVSPPQATPTSLQQTPPCSTPPATTNFPAPPTRARLSRPDSGILASRIPLQSYSQVISRGQAPLAPTHTPEL
modifications: HaloTag-618 dye on the HaloTag copy
As to B1, the binding result in [1] and in experiment [2] was “binds” throughout.

B2: POPDC2-FLAG (protein, UniProt Q9HBU9 1-364)
chain: MSANSSRVGQLLLQGSACIRWKQDVEGAVYHLANCLLLLGFMGGSGVYGCFYLFGFLSAGYLCCVLWGWFSACGLDIVLWSFLLAVVCLLQLAHLVYRLREDTLPEEFDLLYKTLCLPLQVPLQTYKEIVHCCEEQVLTLATEQTYAVEGETPINRLSLLLSGRVRVSQDGQFLHYIFPYQFMDSPEWESLQPSEEGVFQVTLTAETSCSYISWPRKSLHLLLTKERYISCLFSALLGYDISEKLYTLNDKLFAKFGLRFDIRLPSLYHVLGPTAADAGPESEKGDEEVCEPAVSPPQATPTSLQQTPPCSTPPATTNFPAPPTRARLSRPDSGILASRIPLQSYSQVISRGQAPLAPTHTPEL
On to B2, for which the binding entry in [3] is on record as “binds”; in experiment [4] it was “no binding”; in experiment [5] it was “binds”.

B3: POPDC2-VN155 (natural protein, human, UniProt Q9HBU9 1-364, looked up)
chain: MSANSSRVGQLLLQGSACIRWKQDVEGAVYHLANCLLLLGFMGGSGVYGCFYLFGFLSAGYLCCVLWGWFSACGLDIVLWSFLLAVVCLLQLAHLVYRLREDTLPEEFDLLYKTLCLPLQVPLQTYKEIVHCCEEQVLTLATEQTYAVEGETPINRLSLLLSGRVRVSQDGQFLHYIFPYQFMDSPEWESLQPSEEGVFQVTLTAETSCSYISWPRKSLHLLLTKERYISCLFSALLGYDISEKLYTLNDKLFAKFGLRFDIRLPSLYHVLGPTAADAGPESEKGDEEVCEPAVSPPQATPTSLQQTPPCSTPPATTNFPAPPTRARLSRPDSGILASRIPLQSYSQVISRGQAPLAPTHTPEL
notes: POPDC2, human, full-length wild-type cDNA; also called wild-type POPDC2 with split Venus VN155; source: HEK293, transfected, in cells; not shown: split Venus VN155, C-terminal, kept
Turning to B3, the binding entry in [6] and in experiment [7] was “binds” throughout.

B4: POPDC1 (BVES), endogenous in mouse heart (protein, UniProt Q9ES83 1-358)
chain: MNSTESIPLAQSTVAGFTSELESLTPVPSNETTCENWREIHHLVFHVANVCFAVGLLIPTTLHLHMILLRVMLSLGCTLYVVWATLYRCALDVMIWNSVFLGINILHLSYLLYKKRPVKIEKELGGVYHRLFEPLRVPPDLFRRLTGQFCMIQTLKRGQVYATEDKTSVDDRLSILLKGRMKVSYRGHFLHNIYPCAFIDSPEFRSTQMHKGEKFQVTIVADDNCRFLCWSRERLTYFLESEPFLYEIFRYLIGKDITNKLYSLNDPTLNDKKVKKLEPQMSLCTQISMLEMRNSITSSSDGEDGLHHFLRGSSSTASLPMSSPQQRASAKMKPIEEGVEDDDEVFVSPDALKVHQLP
With B4, the binding entry in experiment [8] and in experiment [9] was “binds” in each case.

B5: POPDC3-MYC (protein, UniProt Q9HBV1 1-291)
chain: MERNSSLWKNLIDEHPVCTTWKQEAEGAIYHLASILFVVGFMGGSGFFGLLYVFSLLGLGFLCSAVWAWVDVCAADIFSWNFVLFVICFMQFVHIAYQVRSITFAREFQVLYSSLFQPLGISLPVFRTIALSSEVVTLEKEHCYAMQGKTSIDKLSLLVSGRIRVTVDGEFLHYIFPLQFLDSPEWDSLRPTEEGIFQVTLTAETDCRYVSWRRKKLYLLFAQHRYISRLFSVLIGSDIADKLYALNDRVYIGKRYHYDIRLPNFYQMSTPEIRRSPLTQHFQNSRRYCDK
Consider B5, for which the binding result in experiment [10] and in [5] was “binds” in each case.
